# Laboratory results taken from PubChem BioAssay (NCATS).
# “And” between values parts separate entries of the source, which are not always exact repeats. Identical values can stand only once. Inconclusive results, whose numbers are uncertain, are shown with a selection of clear calls. Where the call is inconclusive, the potency comes from a doubtful curve fit. The source made the active and inactive calls. Calls follow the shape of the dose curve; as a rule, active = well fitted inhibition curve with a large enough effect; inconclusive = small, poorly fitted or top-dose-only effect; inactive = no such curve, though single readings can be large or run the other way.
# Experiment: Primary qHTS for inhibitors of nuclear receptor binding SET domain protein 2 (NSD2) in an RCH-ACV wild type WT cells (2C) (AID 1645877); also: nearly all actives have a fitted effect of over 70% in size
# Conditions: RCH-ACV (leukaemia line) NSD2 WT (2C) viability, CellTiter-Glo, 72 h; activity change, negative = cell killing: at 44.9 µM (top of the series) unless noted; series mostly up to 44.9 µM
# Text: Assay Provider: Jonathan D. Licht, MD
# University of Florida College of Medicine, Gainesville, FL
# Mutations in epigenetic regulators are common in relapsed pediatric acute lymphoblastic leukemia (ALL). Here, we uncovered the mechanism underlying the relapse of ALL driven by an activating mutation of the NSD2 histone methyltransferase (p.E1099K). […] Correction of this mutation restored glucocorticoid sensitivity. The transcriptional response to glucocorticoids was blocked in NSD2 mutant cells due to depressed glucocorticoid receptor (GR) levels and the failure of glucocorticoids to autoactivate GR expression. […] Pre-treatment of NSD2 p.E1099K cell lines and PDX samples with PRC2 inhibitors reversed glucocorticoid resistance in vitro and in vivo.
# High-throughput drug screening of isogenic RCH-ACV cell lines was performed at the National Center for Advancing Translational Science (NCATS), National Institutes of Health as previously described (1). Briefly, isogenic RCH-ACV NSD2 p.E1099K mutant (9B) and WT cells (2C) were plated at 500 cells/well in a 1536-well plate with a 72-hour incubation with compounds prior to addition of CellTiter-Glo to assess cell viability. NCATS libraries screened include: NPC, MIPE 5.0, Kinase and NPACT. To determine compound activity in the qHTS assay, the concentration-response data for each sample was plotted and modeled by a four-parameter logistic fit yielding IC50 and efficacy (maximal response) values. The area under the curve (AUC) of the dose-response curve ensures both efficacy (magnitude of cell killing) and potency (concentration that elicits cell killing) are accounted for in the analysis of activity.
# 1. Tobie D Lee, Olivia W Lee, Kyle R Brimacombe, Lu Chen, Rajarshi Guha, Sabrina Lusvarghi, Bethilehem G Tebase, Carleen Klumpp-Thomas, Robert W Robey, Suresh V Ambudkar, Min Shen, Michael M Gottesman, Matthew D Hall. A High-Throughput Screen of a Library of Therapeutics Identifies Cytotoxic Substrates of P-glycoprotein. Mol Pharmacol. 2019, Nov;96(5):629-640.
# % is scaled to controls: 0 for no effect and ±100 for the full control effect; potency is read from the fitted curve at half-maximal effect; tags tell the direction and shape of the fitted curve.
SMILES,Potency,outcome,"activity change, negative = cell killing"
Oc1c(I)cc(Cl)c2cccnc12,active: 8.41 µM,–,–
Oc1ccc(Cl)cc1Sc1cc(Cl)ccc1O,"inconclusive: 33.5 µM [inhibitor, single point]",–,–
Cc1nc(NC(=O)N2CCC[C@@H]2C(N)=O)sc1-c1csc(C(C)(C)C)n1,active: 7.31 µM,–,–
COc1cccc(CCc2ccccc2OCC(CN(C)C)OC(=O)CCC(=O)O)c1 (stereo not given),"inconclusive: 33.5 µM [inhibitor, single point]",–,–
O=C(Nc1ccc(Cl)cc1)Nc1ccc(Cl)c(Cl)c1,active: 6.68 µM,–,–
COc1ccc(-c2cc(C(F)F)nn2-c2ccc(S(N)(=O)=O)cc2)cc1F,"inconclusive: 23.7 µM [inhibitor, single point]",–,–
CN1CCC(Nc2ncc3ncnc(Nc4ccc(F)c(Cl)c4)c3n2)CC1,"active: 11.9 µM and inconclusive: 29.1 µM [inhibitor, single point]",–,–
O=C(NCC1CN(c2ccc(N3CCOCC3=O)cc2)C(=O)O1)c1ccc(Cl)s1 (stereo not given),"inconclusive: 26.6 µM [inhibitor, partial curve] and inconclusive: 37.2 µM [inhibitor, partial curve, poor fit]",–,–
CC[C@H](C)n1cc(C)c2c(C(=O)NCc3c(C)cc(C)[nH]c3=O)cc(-c3ccc(N4CCNCC4)nc3)cc21,active: 16.6 µM,–,–
CC(=O)[C@H]1CC[C@H]2[C@@H]3C[C@H](C)C4=CC(=O)CC[C@]4(C)[C@H]3[C@@H](O)C[C@]12C,"inconclusive: 0.299 µM [inhibitor, partial curve]",–,–
COc1ccc(NS(=O)(=O)c2ccc(N)cc2)nn1,"inconclusive: 29.9 µM [inhibitor, single point]",–,–
O=C(Nc1ccc(Oc2ccnc3[nH]ccc23)c(F)c1)c1cccn(-c2ccc(F)cc2)c1=O,"inconclusive: 16.6 µM [inhibitor, partial curve]",–,–
O=C1OC2(c3ccccc31)c1cc(Br)c(O)c(Br)c1Oc1c2cc(Br)c(O)c1Br,"inconclusive: 26.6 µM [inhibitor, single point]",–,–
CC(=O)O[C@H]1C(=O)[C@@]2(C)[C@H]([C@H](OC(=O)c3ccccc3)[C@]3(O)C[C@H](OC(=O)[C@H](O)[C@@H](NC(=O)c4ccccc4)c4ccccc4)C(C)=C1C3(C)C)[C@]1(OC(C)=O)CO[C@@H]1C[C@@H]2O,"inconclusive: 0.0154 µM [inhibitor, full curve, poor fit]",–,–
COc1cccc2c(NCc3ccccc3)nc(-n3c(N)nc4ccccc43)nc12,active: 8.33 µM,–,–
COc1cc(OC)cc(OC)c1,–,inactive,–
NC(=O)C(=O)N/N=C/c1ccc([N+](=O)[O-])o1,"inconclusive: 23.7 µM [inhibitor, single point]",–,–
COc1ccc(CN2CCN(C(c3ccc(F)cc3)c3ccc(F)cc3)CC2)c(OC)c1OC,"inconclusive: 29.9 µM [inhibitor, single point]",–,–
O=S1(=O)OC(c2ccc(O)cc2)(c2ccc(O)cc2)c2ccccc21,–,–,inactive: -1.08%
CCN(CC)C(=O)/C(C#N)=C/c1cc(O)c(O)c([N+](=O)[O-])c1,"inconclusive: 33.5 µM [inhibitor, single point]",–,–

SMILES,Potency,outcome,"activity change, negative = cell killing"
CN1CC[C@@H](c2c(O)cc(O)c3c(=O)cc(-c4ccccc4Cl)oc23)[C@@H](O)C1,active: 0.332 µM,–,–
C/C=C(/C(=C/C)c1ccc(O)cc1)c1ccc(O)cc1,"inconclusive: 29.9 µM [inhibitor, single point] and active: 10.5 µM",–,–
O=C(Nc1ncc([N+](=O)[O-])s1)c1cccs1,"inconclusive: 29.9 µM [inhibitor, single point]",–,–
CN(C(=O)CCCOc1ccc2[nH]c(=O)ccc2c1)C1CCCCC1,–,–,inactive: -17%
CN(C)CC/C=C1\c2ccccc2Sc2ccc(Cl)cc21,"inconclusive: 23.7 µM [inhibitor, single point]",–,–
O=C(O)Cn1nnc(-c2cc(N3CCC(Oc4cc(F)ccc4Br)CC3)no2)n1,"inconclusive: 1.15 µM [inhibitor, full curve]",–,–
CNCCCC1c2ccccc2C=Cc2ccccc21,"inconclusive: 29.9 µM [inhibitor, single point]",–,–
CCCCCCCCCCCCCCCC[N+](C)(C)CCN(Cc1ccc(OC)cc1)c1ncccn1,active: 0.75 µM,–,–
CC(C)COC(=O)c1ccc(N)cc1,"inconclusive: 33.5 µM [inhibitor, partial curve, poor fit]",–,–
CC(CN1c2ccccc2Sc2ccccc21)N(C)C (stereo not given),"inconclusive: 26.6 µM [inhibitor, single point]",–,–
CCC(=O)c1ccc2c(c1)N(CCCN(C)C)c1ccccc1S2,"inconclusive: 29.9 µM [inhibitor, single point]",–,–
COc1cc(/C=C/C(=O)O[C@H]2CC[C@]34C[C@]35CC[C@]3(C)[C@@H]([C@H](C)CCC=C(C)C)CC[C@@]3(C)[C@@H]5CC[C@H]4C2(C)C)ccc1O,"inconclusive: 26.6 µM [inhibitor, single point]",–,–
NC[C@H](O)c1ccc(O)c(O)c1,"inconclusive: 23.7 µM [inhibitor, single point]",–,–
Cc1ncc(-c2ccnc(Nc3ccc(S(C)(=O)=O)cc3)n2)n1C(C)C,active: 916 nM and active: 525 nM,–,–
COC(=O)[C@H]1[C@H]2C[C@@H]3c4[nH]c5cc(OC)ccc5c4CCN3C[C@H]2C[C@@H](OC(=O)/C=C/c2cc(OC)c(OC)c(OC)c2)[C@@H]1OC,–,–,inactive: -24.1% [at 17.3 µM]
CC(=O)Oc1ccc(C2(c3ccc(OC(C)=O)cc3)C(=O)Nc3ccccc32)cc1,"inconclusive: 29.9 µM [inhibitor, single point]",–,–
CN1CCN(C(=O)C2CCCCC2)CC1,–,inactive,–
C[C@@H]1C[C@H]2[C@@H]3CCC4=CC(=O)C=C[C@]4(C)[C@@]3(F)[C@@H](O)C[C@]2(C)[C@H]1C(=O)CO,"inconclusive: 0.0084 µM [inhibitor, full curve, poor fit]",–,–
CCCCCCC[N+](CC)(CC)CCCCc1ccc(Cl)cc1,active: 1.88 µM,–,–
NC(=O)c1cccc(-c2cccc(OC(=O)NC3CCCCC3)c2)c1,–,–,inactive: -20.9%
